# Paper PMC7881136
# Sequences of proteins named here, by UniProt entry; tags and fusion partners are left off. A change or cut given only in a name is not applied to a line headed by its entry.
# UniProt Q14974: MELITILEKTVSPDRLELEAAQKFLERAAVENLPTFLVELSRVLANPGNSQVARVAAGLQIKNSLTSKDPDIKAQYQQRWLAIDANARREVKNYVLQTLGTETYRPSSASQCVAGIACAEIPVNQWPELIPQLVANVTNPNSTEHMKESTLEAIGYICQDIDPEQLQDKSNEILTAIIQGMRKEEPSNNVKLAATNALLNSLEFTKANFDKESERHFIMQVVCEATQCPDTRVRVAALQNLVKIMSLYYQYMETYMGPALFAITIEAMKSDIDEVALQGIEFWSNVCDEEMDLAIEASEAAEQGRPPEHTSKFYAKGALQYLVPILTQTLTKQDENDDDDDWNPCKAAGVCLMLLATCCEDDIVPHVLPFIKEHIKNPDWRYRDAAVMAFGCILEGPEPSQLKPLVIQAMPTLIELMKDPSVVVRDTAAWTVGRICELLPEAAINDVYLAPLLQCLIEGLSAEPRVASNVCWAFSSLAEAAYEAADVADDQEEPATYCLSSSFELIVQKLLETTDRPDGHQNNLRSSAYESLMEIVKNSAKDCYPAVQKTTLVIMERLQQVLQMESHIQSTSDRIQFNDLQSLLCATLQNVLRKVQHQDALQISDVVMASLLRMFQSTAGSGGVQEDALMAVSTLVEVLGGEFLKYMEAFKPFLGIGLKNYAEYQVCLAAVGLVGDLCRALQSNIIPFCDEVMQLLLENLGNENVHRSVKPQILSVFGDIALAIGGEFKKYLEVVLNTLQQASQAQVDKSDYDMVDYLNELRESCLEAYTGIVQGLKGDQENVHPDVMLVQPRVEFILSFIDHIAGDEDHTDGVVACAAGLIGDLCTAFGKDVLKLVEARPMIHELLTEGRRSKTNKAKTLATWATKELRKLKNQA
# UniProt P35637: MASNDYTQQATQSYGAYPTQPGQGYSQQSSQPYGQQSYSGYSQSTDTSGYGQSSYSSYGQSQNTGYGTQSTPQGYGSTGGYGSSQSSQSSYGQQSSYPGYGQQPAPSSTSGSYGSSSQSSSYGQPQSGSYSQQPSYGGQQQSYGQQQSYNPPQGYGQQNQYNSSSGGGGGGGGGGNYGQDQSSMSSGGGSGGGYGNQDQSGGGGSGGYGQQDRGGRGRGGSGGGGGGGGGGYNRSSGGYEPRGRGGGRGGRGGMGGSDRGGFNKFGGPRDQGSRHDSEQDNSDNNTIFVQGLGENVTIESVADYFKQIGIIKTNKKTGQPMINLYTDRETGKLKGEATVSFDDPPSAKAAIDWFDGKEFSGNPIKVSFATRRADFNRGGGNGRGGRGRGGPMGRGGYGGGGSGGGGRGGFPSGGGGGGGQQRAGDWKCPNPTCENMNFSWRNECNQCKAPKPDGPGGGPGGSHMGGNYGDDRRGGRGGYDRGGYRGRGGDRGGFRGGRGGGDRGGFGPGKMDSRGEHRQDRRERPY
# These are yes or no findings as the source states them, for the method shown. Some results given as binding are weak or reduced against the parent protein; the word gives no strength. For some assays here: Tags and fused reporters may be left off the sequences shown.
# Experiments:
# GST-Impβ (Importin-β) [1] = biological target: GST-Impβ (Importin-β) (UniProt Q14974); test: pull-down; 4–8 μM GST-importin (or GST) immobilised on 50 μL GSH beads; 4–8 μM MBP-FUS protein or GSP1 added in 100 μL; 20 mM HEPES pH 7.4, 110 mM potassium acetate, 2 mM magnesium acetate, 2 mM DTT, 15% glycerol; 30 min at 25 °C, three washes; Coomassie-stained SDS-PAGE; both purified
# GST-Impβ (Importin-β) [2] = biological target: GST-Impβ (Importin-β) (UniProt Q14974); test: pull-down; MBP-FUS(1–500) with immobilized GST-Impβ in the presence of MBP-IBB; Coomassie-stained SDS-PAGE; both purified
# GST-Importin-9 = GST-Importin-9 (UniProt Q96P70); test: pull-down; 4–8 μM GST-importin (or GST) immobilised on 50 μL GSH beads; 4–8 μM MBP-FUS protein or GSP1 added in 100 μL; 20 mM HEPES pH 7.4, 110 mM potassium acetate, 2 mM magnesium acetate, 2 mM DTT, 15% glycerol; 30 min at 25 °C, three washes; Coomassie-stained SDS-PAGE; both purified
# GST-Importin-5 = biological target: T1, GST-Importin-5 (UniProt O00410); test: as above
# T1 sequence: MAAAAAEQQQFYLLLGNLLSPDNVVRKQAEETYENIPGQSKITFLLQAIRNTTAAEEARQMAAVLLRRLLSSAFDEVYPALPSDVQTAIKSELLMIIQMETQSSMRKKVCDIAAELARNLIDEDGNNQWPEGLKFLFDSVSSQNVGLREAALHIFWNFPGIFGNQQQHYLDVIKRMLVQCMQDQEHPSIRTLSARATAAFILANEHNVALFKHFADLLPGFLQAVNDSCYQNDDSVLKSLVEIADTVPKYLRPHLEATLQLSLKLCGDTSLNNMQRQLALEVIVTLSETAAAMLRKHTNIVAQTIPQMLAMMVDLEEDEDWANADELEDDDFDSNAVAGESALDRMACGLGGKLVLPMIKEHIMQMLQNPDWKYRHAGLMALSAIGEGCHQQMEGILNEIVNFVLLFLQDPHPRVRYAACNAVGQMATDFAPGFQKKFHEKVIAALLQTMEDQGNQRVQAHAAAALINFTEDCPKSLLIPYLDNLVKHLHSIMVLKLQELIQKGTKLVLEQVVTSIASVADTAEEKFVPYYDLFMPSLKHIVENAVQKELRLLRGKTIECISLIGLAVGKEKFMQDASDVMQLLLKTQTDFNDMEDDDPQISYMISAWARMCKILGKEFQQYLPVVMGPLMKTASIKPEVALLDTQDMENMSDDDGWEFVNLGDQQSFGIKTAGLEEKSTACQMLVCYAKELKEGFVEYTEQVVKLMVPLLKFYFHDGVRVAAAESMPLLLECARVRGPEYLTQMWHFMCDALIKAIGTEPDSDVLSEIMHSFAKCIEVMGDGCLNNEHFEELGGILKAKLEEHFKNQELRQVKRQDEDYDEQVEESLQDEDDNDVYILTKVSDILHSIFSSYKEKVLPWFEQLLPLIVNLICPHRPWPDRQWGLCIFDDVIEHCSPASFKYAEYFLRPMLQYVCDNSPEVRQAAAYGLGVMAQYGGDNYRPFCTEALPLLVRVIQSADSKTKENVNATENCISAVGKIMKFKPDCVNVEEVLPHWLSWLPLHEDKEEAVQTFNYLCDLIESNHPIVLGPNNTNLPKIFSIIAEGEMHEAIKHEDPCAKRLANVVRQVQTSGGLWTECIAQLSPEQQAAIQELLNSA
Substance,binding (GST-Impβ (Importin-β) [1]),binding (GST-Impβ (Importin-β) [2]),binding (GST-Importin-9),binding (GST-Importin-5)
MBP-FUS(1–500) (from UniProt P35637 1-500) (domain or fragment),binds,binds,,
MBP-FUS (full length) (from UniProt P35637 1-526),binds,,,
MBP-FUS(371–500) (RGG2-ZnF-RGG3) (from UniProt P35637 371-500) (domain or fragment),binds,,binds weakly,binds weakly
MBP-FUS(R495X) (residues 1–494) (from UniProt P35637 1-494) (domain or fragment),binds,,,
MBP-FUS PY-NLS (residues 475–526) (from UniProt P35637 475-526) (domain or fragment),no binding (tested: 4–8 μM),,,
